# Measurements published in publication PMC4336329 (PLoS ONE, 2015).
# About 14,000 (4.5%) of roughly 310,000 compounds showed an effect of 50% or more. Effects have a minus sign here. Some of the results follow.
# Target: human ether-à-go-go-related gene (hERG) potassium channel (human, UniProt Q12809)
# Test: primary screen, population patch clamp on CHO cells stably expressing hERG
# 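Note: peak tail current of the secondary pulse compared with the same well before compound.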
# human ether-à-go-go-related gene (hERG) potassium channel, sequence (Q12809 whole entry, looked up): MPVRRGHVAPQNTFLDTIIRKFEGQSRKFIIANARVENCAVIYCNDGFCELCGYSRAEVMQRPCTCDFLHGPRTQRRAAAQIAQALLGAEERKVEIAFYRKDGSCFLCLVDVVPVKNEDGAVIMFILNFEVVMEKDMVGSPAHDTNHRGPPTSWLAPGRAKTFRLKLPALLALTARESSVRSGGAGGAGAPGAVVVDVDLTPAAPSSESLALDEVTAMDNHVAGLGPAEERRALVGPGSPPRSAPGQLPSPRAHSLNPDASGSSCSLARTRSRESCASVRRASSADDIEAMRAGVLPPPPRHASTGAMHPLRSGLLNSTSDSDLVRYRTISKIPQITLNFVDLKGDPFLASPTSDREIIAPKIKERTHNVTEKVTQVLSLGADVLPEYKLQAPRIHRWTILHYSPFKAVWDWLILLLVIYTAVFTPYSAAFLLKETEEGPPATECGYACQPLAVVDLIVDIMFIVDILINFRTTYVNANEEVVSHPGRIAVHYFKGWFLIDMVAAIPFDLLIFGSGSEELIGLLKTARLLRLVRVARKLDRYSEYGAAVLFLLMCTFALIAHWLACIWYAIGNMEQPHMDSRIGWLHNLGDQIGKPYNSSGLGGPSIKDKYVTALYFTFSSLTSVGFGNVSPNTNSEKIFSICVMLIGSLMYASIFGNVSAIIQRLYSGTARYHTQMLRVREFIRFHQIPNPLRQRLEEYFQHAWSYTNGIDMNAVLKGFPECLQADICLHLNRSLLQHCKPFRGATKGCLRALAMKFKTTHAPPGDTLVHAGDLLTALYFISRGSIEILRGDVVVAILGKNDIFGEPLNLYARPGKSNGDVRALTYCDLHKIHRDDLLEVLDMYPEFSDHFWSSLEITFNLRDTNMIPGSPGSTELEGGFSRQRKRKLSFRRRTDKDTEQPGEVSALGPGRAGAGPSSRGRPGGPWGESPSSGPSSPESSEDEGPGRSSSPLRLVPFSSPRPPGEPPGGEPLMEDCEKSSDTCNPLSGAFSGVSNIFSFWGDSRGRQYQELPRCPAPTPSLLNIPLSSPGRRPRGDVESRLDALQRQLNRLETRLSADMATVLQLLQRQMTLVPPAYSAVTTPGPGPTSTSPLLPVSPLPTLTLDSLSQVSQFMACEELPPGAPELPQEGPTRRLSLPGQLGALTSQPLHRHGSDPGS
row,Compound,"hERG current change (%, negative = inhibition) at 10uM"
1,COc1ccc(-c2cc(-c3ccccc3)no2)cc1,9.77%
2,COc1ccc(S(=O)(=O)N2CCC(C(=O)NCc3ccco3)CC2)cc1,-25.4%
3,Cc1ccc2cccc(SCC(=O)NCC#N)c2n1,11.4%
4,CCOc1ccccc1NC(=O)C(OC(=O)C1CC1)c1ccccc1 (centres unmarked),-10.3%
5,Cc1c(/C=C(\C#N)c2nn(-c3ccccc3)c(N)c2C#N)c2ccccc2n1Cc1ccc(F)cc1,4.69%
6,CCOC(=O)CN1C(=O)C(O)=C(C(C)=O)C1c1ccc(F)cc1 (centres unmarked),12.2%
7,Cc1cc(C(=O)Nc2c(C)n(C)n(-c3ccccc3)c2=O)c(C)o1,20.1%
8,O=c1[nH]c(O)c(C=Nc2ccccc2Oc2ccccc2)c(=O)[nH]1,15.9%
9,O=C(NC1CCCCCCC1)c1cc([N+](=O)[O-])ccc1Cl,1.32%
10,CSCC[C@H](NC(=O)c1cccc([N+](=O)[O-])c1C)c1nc2ccccc2[nH]1,-11.6%
11,CCN(CC)S(=O)(=O)c1ccc(OC)c(NC(=S)Nc2cccc(C)c2C)c1,-3.26%
12,CC1CC(C)CN(C(=O)CNS(=O)(=O)c2ccc(Br)s2)C1 (centres unmarked),-1.92%
13,CCn1cnc2c1c(=O)n(CC(=O)OC)c(=O)n2Cc1ccccc1,15.4%
14,COc1ccccc1C1(CCN=Cc2ccc(N(C)C)cc2)CCOC(C)(C)C1 (centres unmarked),-2.03%
15,Cc1ccc(S(=O)(=O)NCC(=O)N(CC(=O)NCc2ccco2)Cc2cccs2)cc1,-48.4%
16,Cc1nnc(SCC(=O)NC2CC2)n1CCc1ccccc1,13%
17,CN(C)C(=O)c1cc(C(=O)c2ccccc2Br)c[nH]1,20.7%
18,Cc1ccc(C(=O)Nc2cccc(C(=O)N/N=C/c3ccccc3F)c2)cc1,-1.85%
19,COc1ccc(OC)c(-c2nc(CN(C)C(C)c3ccncn3)c(C)o2)c1 (centres unmarked),0.284%
20,CCOC(=O)C1(C(F)(F)F)N=C(C(F)(F)F)Nc2cc(C)c(C)cc21 (centres unmarked),-1.3%
21,COc1ccc(Nc2ccc(N3C(=O)CCCC3=O)cc2[N+](=O)[O-])cc1OC,20.8%
22,Cc1[nH]c2ccc(C(=O)N3CCN(c4ccc(F)cc4)CC3)cc2c1C,1.66%
23,C=CCn1c(SCC(=O)NCCOC)nnc1-c1cc2c(s1)CCC(CC)C2 (centres unmarked),-4.36%

row,Compound,"hERG current change (%, negative = inhibition) at 10uM"
1,COCc1cc(=O)n2[nH]c(C(C)(C)C)cc2n1,18.5%
2,COc1ccc(N2CCN(C(=O)c3c(-c4c(F)cccc4Cl)noc3C)CC2)cc1,6.53%
3,COc1ccc(C(=O)Nc2ccc3c(c2)C(=O)c2ccccc2C3=O)cc1OC,9.3%
4,CC(NC(=O)c1cc2c(s1)CS(=O)(=O)C2)c1ccccc1 (centres unmarked),10.3%
5,CN/C(=C/[N+](=O)[O-])NCCSCc1ccc(CN(C)C)o1.Cl,8.84%
6,Cc1ccc(NC2c3ncccc3C(=O)N2C2CCCCC2)cc1 (centres unmarked),5.93%
7,CN(C)S(=O)(=O)c1cccc(NC(=O)COC(=O)c2cn(-c3ccccc3)nc2-c2ccccc2)c1,12.3%
8,CN(C)S(=O)(=O)c1ccc(C(=O)Nc2nc3ccccc3[nH]2)cc1,31.3%
9,COCCNC(=O)[C@@H]1CSC2c3ccccc3C(=O)N21 (some centres unmarked),16.7%
10,C[C@H](NC(=O)c1ccccc1)C(=O)N1CCC2(CC1)NCCc1[nH]cnc12,11.8%
11,C=CCOc1c(Br)cc(CNc2ccc3[nH]c(=O)[nH]c3c2)cc1OCC,19.7%
12,CN(C)S(=O)(=O)c1ccc(NC(=O)Cc2ccc(S(=O)(=O)N3CCOCC3)s2)cc1,8.24%
13,COC(=O)C[C@H]1c2ccccc2S(=O)(=O)N1c1cccc(OC)c1,-5.21%
14,CCn1ncc(CNC(=O)c2cccc([N+](=O)[O-])c2)c1C,-1.92%
15,Cn1c(SCC(=O)N2CCOCC2)nc2sc3c(c2c1=O)CCCC3,-19.9%
16,CN(C)c1nc(SCC#N)nc(N2CCOCC2)n1,8.99%
17,CC1CN(CCc2ccccc2)c2nc3c(c(=O)[nH]c(=O)n3C)n2C1 (centres unmarked),-35.9%
18,CCCN1CCc2c(sc(NC(=O)c3ccc(S(=O)(=O)N4CCCC4)cc3)c2C(N)=O)C1,-0.925%
19,CCC(=O)Nc1sccc1C(=O)OC,3.77%
20,CN(Cc1ccc(F)cc1)C(=O)CNC(=O)C1CCCCC1,17.8%
21,O=C(COC(=O)COc1ccccc1)Nc1ccc(OC(F)(F)F)cc1,14.8%
22,CCC(=O)NC(c1ccc(N(C)C)cc1)c1c(O)ccc2ccccc12 (centres unmarked),17.5%
23,CC/C(=N\Nc1ccnc2cc(Cl)ccc12)c1ccc(O)cc1,18.9%

row,Compound,"hERG current change (%, negative = inhibition) at 10uM"
1,CC(Sc1nnc(-c2ccccc2Br)o1)C(=O)N1CCOCC1 (centres unmarked),-4.48%
2,Cc1cc(-c2ccccc2)nc(N(C)NC(=O)C(C)(C)C)c1S(C)(=O)=O,11.4%
3,CC1CN(C(=S)SCCN2C(=O)CCC2=O)CC(C)O1 (centres unmarked),12.1%
4,CCOC(=O)c1cn2nc(Oc3ccc(C#N)cc3)ccc2n1,-54.1%
5,Cc1cc(NC(=O)Nc2ccccc2)n(C(C)(C)C)n1,24.2%
6,O=C(O)c1nsc(Cl)c1Cl,10.1%
7,COc1ccc2c(c1)O[C@H]1c3ccc(O)cc3OC[C@@H]21,-4.68%
8,CCOC(=O)c1c(NC(C)=O)sc2c(OCC(O)CNC(C)(C)C)c(Br)ccc12 (centres unmarked),-11.8%
9,O=C(CSc1nnc(NC(=O)C2CC2)s1)Nc1ccccc1C(F)(F)F,9.73%
10,Cc1ccccc1CNC(=O)C1CCCN(c2cnccn2)C1 (centres unmarked),6.12%
11,O=c1[nH]c(SCc2n[nH]c(=S)n2-c2ccccc2)nc2sc3c(c12)CCC3,25.1%
12,CCOC(=O)Cc1csc(NC(=O)c2ccc(OC)c(OC)c2)n1.Cl,-16.4%
13,NC(=O)c1nsc(C(=O)N(CCCN2CCOCC2)C(C(=O)NC2CCCCC2)c2ccc(Cl)cc2)c1N (centres unmarked),-42.8%
14,O=C(O)c1ccccc1NCc1ccncc1,7.7%
15,S=C(Nc1cccc2ccccc12)NC1CCCCC1,-1.99%
16,CCCOc1cccc(-c2cc(-c3n[nH]c(=S)n3CC)c3ccccc3n2)c1,6.72%
17,CC(=O)NC1CC2CCCC(C1)N2Cc1ccc(C)cc1 (centres unmarked),-30.5%
18,Cl.O=C1c2ccccc2C(=O)N1CC#CCN1CCN(C2CCCCC2)CC1,-40.8%
19,COc1ccc(CC(=O)Nc2ccc(C(C)=O)cc2)cc1,30.8%
20,CC(=O)c1cc(CN2C(=O)CCC2=O)cs1,5.27%
21,CC(C)N1CCc2c(sc(NC(=O)c3ccc(S(=O)(=O)N4CCOCC4)cc3)c2C#N)C1,4.2%
22,CCNC(=S)NNC(=O)CSc1nc2ccccc2n1C,5.25%
23,CC(C)(C)c1ccc(-n2ncc3c2CCCC3NC(=O)CCn2cncn2)cc1 (centres unmarked),-31%

row,Compound,"hERG current change (%, negative = inhibition) at 10uM"
1,COc1ccc(/C(C)=N/NC(=O)c2cc(-c3cccnc3)nc3ccccc23)cc1,10.6%
2,Cc1ccccc1C(=O)Nc1ccnc(-c2ccncc2)n1,21.2%
3,S=C(Nc1ccccn1)NC1CCCCC1,12.9%
4,CC(C)NC(=O)C1CCN(Cc2cccc(Oc3ccccc3)c2)CC1.O=C(O)C(=O)O,-22.8%
5,CCN(CC)C(=O)[C@]1(c2ccccc2)C[C@@H]1CN.Cl,-6.32%
6,CCCCCCOc1ccc(N2C(=O)CC(SC(=NCC)NCC)C2=O)cc1 (centres unmarked),20.9%
7,CC(C)c1cc(-c2n[nH]c(=S)n2Cc2ccccc2)cs1,17.8%
8,COc1ccc(OC)c(C(=O)COC(=O)C2CC3CCCC(C2)C3=O)c1 (centres unmarked),1.45%
9,COc1ccc(C2c3c4c(n(C)c3CCN2C)CCN(C)C4c2ccc(OC)cc2)cc1.Cl (centres unmarked),-4.24%
10,O=C(c1ccncc1)N1CCN(S(=O)(=O)c2cccc(F)c2)CC1,7.6%
11,CCc1nnc(NC(=O)[C@@H](NC(=O)c2ccc(C(C)(C)C)cc2)C(C)C)s1,-0.443%
12,CCCCN1C(=O)/C(=C2/Sc3ccccc3N2C)S/C1=N\c1ncn[nH]1,7.78%
13,CCCC(=O)N1CCN(c2nc3ccccc3s2)CC1,-24.7%
14,Br.C=CCN1CCc2c(cc(O)c(O)c2Br)[C@@H](c2ccccc2)C1,-30.4%
15,COc1cc(NS(=O)(=O)c2ccc(N)cc2)nc(OC)n1,9.57%
16,CC(C)(C)c1ccc(C(=O)N/C(N)=N/c2nc3ccccc3o2)cc1,-9.62%
17,CCOc1ccccc1NS(=O)(=O)c1cc2c3c(c1)CC(=O)N3CCC2,-11.2%
18,O=C(c1ccc(=O)[nH]c1)N(Cc1ccco1)C1(C(=O)NC2CCCCC2)CCCCC1,-12.9%
19,Cc1ccc(-c2nc3sc(C(N)=O)c(N)c3c3c2CCCC3)cc1,7.88%
20,O=C(Oc1ccc2[nH]cc(CCN3C(=O)c4ccccc4C3=O)c2c1)c1ccco1,6.5%
